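Grown in 96-well plates, cells were treated for 48 hours with each compound at five concentrations. Insufficient inhibition: endpoint recorded as highest concentration tested. Here, GI50 denotes the concentration required for 50% inhibition of growth. Definition used: TGI = concentration required for complete inhibition of growth.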

For the test, the system named is NCI-H322M lung. The test can be described thus: NCI anticancer screen, dose series, 48 h.
Turning to `Nc1ccc2nc3ccc(N)cc3[n+](-c3ccccc3)c2c1`, the TGI was above 100 µM.

`CC(=O)OC1COC(n2nc(/C=C/c3ccc(Cl)cc3)c(=O)n(/N=C/c3ccccc3)c2=S)C(OC(C)=O)C1OC(C)=O` (stereo unspecified) gave a TGI above 100 µM.

`C=CCOC1OC(CS(=O)(=O)O)C(O)C(O)C1O` (stereo unspecified) showed a TGI above 100 µM.

As to `C=CC(C)(C)C(=C)C(=O)N(C)c1ccccc1I`, the TGI is above 100 µM.

Turning to `CCN(CC)CCC1CCCCN1CC(=O)N1c2ccccc2NC(=O)c2ccccc21` (stereo unspecified), the TGI is above 100 µM.

`C=CC1=C[C@@H]2[C@@H]3O[C@]4(CC[C@H](O4)[C@@H](C)C[C@@H](O)C3=O)C[C@H](O)C3=NCC[C@@]32CC1`: the GI50 is below 0.00333 µM and the TGI amounted to 0.00973 µM.

As to `CCc1ccccc1N1CCN(C(=O)c2cc(OC)c(OC)c(OC)c2)CC1`, the TGI was above 100 µM.

Compound `O=C(Cn1cc(F)c(=O)[nH]c1=O)C12CC3CC(CC(C3)C1)C2` had a TGI above 100 µM.

In the case of `Cc1cccc(NC(=O)c2cc3cc(N=Nc4ccccc4Cl)ccc3oc2=O)c1`, the TGI is above 100 µM.

`COc1ccc(C2=NN(C(=O)COc3ccc(Cl)cc3)C(O)(c3ccc(Cl)cc3)C2)cc1` (stereo unspecified) had a TGI above 100 µM.

On to `O=C1/C(=C/c2ccc([N+](=O)[O-])o2)Oc2ccc(Br)cc21`, for which the GI50 was 15.1 µM and the TGI worked out at 31.1 µM.

In turn, `O=C1NC(=S)NC(=O)C1C(c1ccc([N+](=O)[O-])cc1)C1C(=O)NC(=S)NC1=O` registered a TGI above 100 µM.

`COc1cc(/C=C/C(=O)OC2C(O)C3CC(OC(=O)c4cc(OC)c(OC)c(OC)c4)CC2N3C)cc(OC)c1OC` (stereo unspecified): the TGI was above 50 µM.

With `CC(C)[C@@]12C[C@@H](OC(=O)COC(=O)/C=C/c3ccccc3)[C@@](C)(O1)[C@@H]1CC[C@@H](C)[C@H]1[C@@H]2OC(=O)/C=C/c1ccccc1`, the GI50 was above 100 µM and the TGI was above 100 µM.

With `C(=Nc1ccc(-c2cc(-c3ccccc3)nc3ccc4ccccc4c23)cc1)c1ccccc1`, the TGI is above 100 µM.

With `CC(=O)Nc1ccc(/C=N\N2C(=O)c3ccccc3C2=O)cc1`, the TGI was above 100 µM.

`CCCCCCCCCCC(O)[C@H]1CCC(C2CC[C@H]([C@H](O)CCCCCCCCCCC(O)CC3=CC(C)OC3=O)O2)O1` (stereo partly specified): the GI50 was 2.86 µM and the TGI turned out to be 21.4 µM.

With `CN(C)CCNC(=O)c1ccc(C(=O)NCCN(C)C)c2nc3ccccc3cc12`, the TGI amounted to 4.85 µM.

Take `Cc1cc(C)c2c(c1)Nc1ccccc1P2c1ccccc1` (stereo unspecified): the TGI was above 100 µM.

Compound `COC(=O)C1=C(C(=O)OC)C2C(C)=CC(C)=CN2C(C#N)=C(SC)S1` (stereo unspecified) came in with a TGI above 100 µM.

Compound `N=C(N)C(N=Nc1ccccc1)C(N)=O` (stereo unspecified) gave a TGI above 100 µM.

Turning to `CC1=CCC(OC(=O)C(C)(C)CCC(O)(C(=O)OC2(C(C)C)CCC3(C)OC3C2)C(C)C)(C(C)C)CC1` (stereo unspecified), the GI50 is 0.757 µM and the TGI was 1.46 µM.

`O=C(O)CCC(NC(=O)c1ccc(Nc2cnc3ccc(C(F)(F)F)cc3n2)cc1)C(=O)O` (stereo unspecified) gave a TGI above 100 µM.

Compound `C=CN1C(=O)OC[C@@H]1c1ccccc1` registered a TGI above 100 µM.

On to `O=C(CCCCCCSc1nc(-c2ccccc2)cc(-c2ccccc2)n1)NO`, for which the GI50 is 2.41 µM and the TGI came to 10.8 µM.

For the compound `CS/C(=N\C(=S)Nc1ccccc1)Nc1ccccc1`, the TGI is above 100 µM.

For `Cc1ccc2cc3c(ccc4ccccc43)c3c2c1CC3`, the TGI was above 100 µM.

As for `N=c1c2c(-c3ccccc3)c(-c3ccccc3)n(Cc3ccccc3)c2ncn1CCCO`, the GI50 was 4.3 µM and the TGI was 24.2 µM.

Compound `COc1cc(Cl)cc(N(O)C(C)=O)c1OCc1ccccc1` showed a TGI above 100 µM.

`O=C1OC(CC(=O)c2ccc(Cl)cc2Cl)C(Cl)=C1Cl` (stereo unspecified) gave a TGI above 100 µM.

The compound `c1ccc(-c2ccc(-c3cc4ccccc4[nH]3)cc2)cc1` displayed a TGI above 100 µM.

As for `CCCCCCCCCCCCCCCC[N+](C)(C)CCN(Cc1ccc(OC)cc1)c1ncccn1`, the GI50 was 3.04 µM and the TGI was 17.1 µM.

The compound `Nc1ncnc2c1ncn2CC(O)C(=O)O` (stereo unspecified) yielded a TGI above 100 µM.

On to `Cn1c(=O)c(Oc2ccc(F)cc2F)cc2cnc(NC(CO)CO)nc21`, for which the GI50 was above 25 µM and the TGI is above 25 µM.

On to `Cc1ccc(NC(=O)c2cc3ccccc3c(N=Nc3ccccc3O)c2O)c(C)c1`, for which the TGI is above 100 µM.

Regarding `O=C(O)CCSCCCN1C(=O)c2ccccc2C1=O`, the TGI is above 100 µM.

With `CCN(CCNc1ccc(C)c2sc3cc(Cl)ccc3c(=O)c12)CC(C)O` (stereo unspecified), the GI50 is 1.66 µM and the TGI came out at 3.95 µM.

Turning to `CC(C)(C)[Si](C)(C)OCC1OC(n2ccc(=O)[nH]c2=O)C(O[Si](C)(C)C(C)(C)C)[C@@]12O[C@H]2C(N)=O` (stereo partly specified), the TGI came out at 49.9 µM.

With `COc1ccc(C(=O)c2sc(Nc3ccccc3)nc2N)cc1`, the TGI was above 100 µM.

As to `C=CCNCCCN1C(=O)c2ccc3c4c(ccc(c24)C1=O)C(=O)N(CCCNCC=C)C3=O`, the GI50 was 0.297 µM and the TGI is 0.883 µM.

On to `N#Cc1c2cccnc2c2nnc3cc(Cl)c(Cl)cc3n12`, for which the GI50 is 2.67 µM and the TGI amounted to 6.48 µM.

Regarding `C/C(=N\NC(=S)NC1CCCC1)c1ccccn1`, the TGI is above 75.5 µM.

`NC1=C(Br)C(=O)c2ncccc2C1=O` came in with a TGI of 2.88 µM.

In the case of `CN(C)c1ccc(-c2cc(-c3ccc(Nc4nc(Nc5ccccc5)nc(Nc5ccc(Cl)cc5)n4)cc3)nc(N)n2)cc1`, the GI50 is 3.51 µM and the TGI came to 48.5 µM.

In the case of `O=C(c1ccccc1)[C@H]1Nc2ccc(Cl)cc2[C@H]2OCCC[C@@H]12`, the TGI is 53.6 µM.

Compound `OCC(O)C(OC1OC(CO)C(O)C(O)C1O)c1nn(-c2ccccc2)c2nc3cc(Cl)c(Cl)cc3cc12` (stereo unspecified) gave a TGI above 100 µM.

Consider `C[C@H]1[C@H](C)CC[C@]2(C(=O)N3CCN(C)CC3)CC[C@]3(C)C(=CC[C@@H]4[C@@]5(C)C/C(=C/c6cccnc6)C(=O)C(C)(C)[C@@H]5CC[C@]43C)[C@H]12`, for which the GI50 was 1.37 µM and the TGI was 2.68 µM.

As for `Cc1cc(NC(=O)NC(=O)c2ccccc2N)ccc1Oc1ncc(Br)cn1`, the TGI is above 100 µM.

With `COc1c(OC)c(N)c2cc(C)c(=O)c(C)cc2c1N`, the TGI is above 100 µM.

Turning to `Cc1nc2cnc3cc(F)c(-c4ccc(Oc5ncccn5)cc4Cl)cc3c2n1[C@H]1CCN(C(=O)CO)C[C@@H]1F`, the GI50 was 2.62 µM and the TGI was above 82.4 µM.

Take `FC(F)(F)C(C1=NC(C(F)(F)F)(C(F)(F)F)N=C(N2CCOCC2)O1)C(F)(F)F`: the TGI is above 100 µM.

As for `O=c1c2cc(Br)ccc2nc(-c2ccccc2Cl)n1NCC1(O)OCC(O)C(O)C1O` (stereo unspecified), the TGI is above 100 µM.

In turn, `CCOC(=O)c1cc(C2CCN(CC(C)CC)C2=S)c(-c2cc(C)no2)[nH]1` (stereo unspecified) yielded a TGI above 100 µM.

The compound `CCCCCCCCCCCCCCCCCCNc1ccn(C2OC(CO)C(O)C2O)c(=O)n1` (stereo unspecified) gave a TGI above 100 µM.

For `COc1ccc(C(=O)/C=C/c2c(C(F)(F)F)nc3sccn23)cc1OC`, the GI50 is 3.17 µM and the TGI was above 100 µM.

In turn, `Nc1ccn(CCO)c(=O)n1` showed a TGI above 100 µM.

On to `NC(=O)c1cc([N+](=O)[O-])c(Cl)c([N+](=O)[O-])c1`, for which the GI50 is 16.3 µM and the TGI stood at 30.7 µM.

The compound `CC(/C(=N/NC(=O)C(N)=O)c1c(Cl)ccc(Cl)c1O)C1(O)C(=O)Nc2ccccc21` (stereo unspecified) gave a TGI above 100 µM.

Compound `COc1ccc(C(Cc2cc(OC)c(OC)c(OC)c2)C(=O)O)cc1` (stereo unspecified) displayed a TGI above 100 µM.
